Reference: PubChem BioAssay AID1347165 (National Center for Advancing Translational Sciences (NCATS), 2019)
“And” between values parts separate entries of the source, which are not always exact repeats. Equal entries are not always repeated. Among all 220,000 compounds or so, about 5,700 (2.6%) were called active. The inconclusive results got no clear call from the source; some entries with a clear call stand among them for comparison. Calls come from the whole dose curve; as a rule, active = well fitted inhibition curve with a large enough effect; inconclusive = small, poorly fitted or top-dose-only effect; inactive = no such curve, though single readings can be large or run the other way. Potencies beside an inconclusive call are fits to weak or partial responses and may not hold up.

target: Lysine-specific demethylase 5B (Homo sapiens) (UniProt Q9UGL1); assay: Primary screen for KDM5B Histone Demethylases FDH-coupled qHTS; details: FDH-coupled NADH fluorescence (FDH is formaldehyde dehydrogenase); activity change, negative = inhibition: at 57.7 µM (top of the series) unless noted; note: nearly all actives have a fitted effect of over 70% in size; for activity change, negative = inhibition: 0% is about no effect
Sequence of UniProt Q9UGL1 (Q9UGL1 whole entry, looked up): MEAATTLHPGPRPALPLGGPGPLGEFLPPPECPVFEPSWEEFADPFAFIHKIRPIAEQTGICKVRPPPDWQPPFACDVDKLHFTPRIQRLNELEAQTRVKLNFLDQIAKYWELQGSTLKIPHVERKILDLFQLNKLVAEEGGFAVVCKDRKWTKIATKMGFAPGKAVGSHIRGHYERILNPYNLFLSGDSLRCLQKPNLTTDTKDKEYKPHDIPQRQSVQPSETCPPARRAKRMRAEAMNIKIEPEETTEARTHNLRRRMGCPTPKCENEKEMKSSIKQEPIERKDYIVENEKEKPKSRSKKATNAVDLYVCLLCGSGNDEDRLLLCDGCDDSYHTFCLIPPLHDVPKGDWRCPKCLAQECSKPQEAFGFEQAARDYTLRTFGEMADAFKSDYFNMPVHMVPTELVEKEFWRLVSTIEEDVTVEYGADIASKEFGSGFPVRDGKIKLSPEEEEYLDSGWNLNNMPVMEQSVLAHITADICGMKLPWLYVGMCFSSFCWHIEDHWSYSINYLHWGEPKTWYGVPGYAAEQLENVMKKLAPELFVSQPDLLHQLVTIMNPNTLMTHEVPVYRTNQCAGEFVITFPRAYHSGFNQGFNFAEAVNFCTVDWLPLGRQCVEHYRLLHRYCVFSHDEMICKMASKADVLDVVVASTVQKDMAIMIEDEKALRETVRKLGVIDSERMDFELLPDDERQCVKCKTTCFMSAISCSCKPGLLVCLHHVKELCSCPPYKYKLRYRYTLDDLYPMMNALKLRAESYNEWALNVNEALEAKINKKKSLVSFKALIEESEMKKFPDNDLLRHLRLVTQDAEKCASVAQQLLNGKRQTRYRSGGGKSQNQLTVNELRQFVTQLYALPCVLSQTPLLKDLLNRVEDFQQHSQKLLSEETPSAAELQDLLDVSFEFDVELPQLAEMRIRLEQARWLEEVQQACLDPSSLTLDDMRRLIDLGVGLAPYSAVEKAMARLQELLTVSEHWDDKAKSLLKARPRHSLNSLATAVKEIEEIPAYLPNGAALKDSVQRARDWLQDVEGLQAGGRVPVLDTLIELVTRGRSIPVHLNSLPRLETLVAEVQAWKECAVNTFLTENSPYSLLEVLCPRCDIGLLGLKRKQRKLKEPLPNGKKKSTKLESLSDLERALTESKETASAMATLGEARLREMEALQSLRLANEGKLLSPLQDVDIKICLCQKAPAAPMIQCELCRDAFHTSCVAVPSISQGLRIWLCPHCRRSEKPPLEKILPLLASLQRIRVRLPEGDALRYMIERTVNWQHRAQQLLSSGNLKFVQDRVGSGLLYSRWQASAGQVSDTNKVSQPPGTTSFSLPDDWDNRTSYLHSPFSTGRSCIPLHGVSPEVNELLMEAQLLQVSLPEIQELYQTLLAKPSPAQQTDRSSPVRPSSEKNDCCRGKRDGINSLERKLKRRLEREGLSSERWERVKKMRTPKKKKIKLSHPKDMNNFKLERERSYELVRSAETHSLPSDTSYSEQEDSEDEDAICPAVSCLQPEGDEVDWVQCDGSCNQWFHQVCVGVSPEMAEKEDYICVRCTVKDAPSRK
Method in brief: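 KDM5BΔAP (200 nM final) in 50 mM HEPES pH 7.5, 0.01% Tween-20 was preincubated 10 min at RT with compound over a concentration range. Substrate mix (H3K4me3 12.5 µM, α-KG 25 µM, Fe²⁺, ascorbate, NAD⁺, FDH) was added, and NADH fluorescence change over 30 min gave dose-response curves.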
Potency is the fitted concentration of half-maximal effect; tags give direction and shape of the fitted curve.

| SMILES | Potency | activity change, negative = inhibition |
| --- | --- | --- |
| COc1ccc(OC)c(CN2CCCC(C(=O)N3CCCCCC3)C2)c1 (centres undefined) | inconclusive: 20 µM [inhibitor, partial curve, poor fit] |  |
| CCCNC(=O)N1CCN2C(=O)c3cc(-c4ccccc4F)ccc3NC(=O)[C@@H]2C1 | inconclusive: 44.7 µM [inhibitor, single point] |  |
| COc1ccc(C(=O)Nc2ccc(-c3noc([C@@H]4CCCN4Cc4ccc(S(C)(=O)=O)cc4)n3)cn2)cc1 | inconclusive: 28.2 µM [inhibitor, single point] |  |
| O=C(Cn1nc(Cl)nc1Cl)c1ccc(Cl)cc1 |  | inactive: -4.3% |
| COc1ccc(-c2cc(C(=O)NCC(C)C)c3c(C4CCNC4)nn(C)c3n2)cc1 (centres undefined) | active: 79.4 µM |  |
| Clc1ccc(CSc2nnc([C@@H]3CCCN3)o2)c(Cl)c1 |  | inactive: 13.9% |
| Cc1oc2c(c1C(=O)N1CCN(c3ccccc3)CC1)CN(Cc1ccc(F)cc1)CC2 | inconclusive: 22.4 µM [inhibitor, partial curve, poor fit] |  |
| O=C(Nc1nc2ccccc2[nH]1)c1cccc(S(=O)(=O)N2CCc3ccccc32)c1 | inconclusive: 39.8 µM [inhibitor, single point] |  |
| CCOC(=O)c1ccccc1NC(=O)Cn1c(=O)n(CCC(=O)N2CCc3ccccc3C2)c(=O)c2ccccc21 | inconclusive: 31.6 µM [inhibitor, partial curve, poor fit] |  |
| COc1cc(NC(=O)c2cc(Cl)ccc2Cl)ccc1NC(=O)c1cc2ccccc2o1 | inconclusive: 22.4 µM [inhibitor, partial curve, poor fit] |  |
| Cc1ccc(CNC(=O)c2ccc3c(c2)CN(CCCc2ccc(C)o2)CCO3)cc1 | inconclusive: 17.8 µM [inhibitor, partial curve] |  |
| CN(C)[C@@H]1CN(C(=O)C2CCC2)CC[C@]1(O)c1ccccc1 | inconclusive: 15.8 µM [inhibitor, partial curve, poor fit] |  |
| O=C(c1ccc2nccn2c1)N1CCN(c2ncccn2)CC1 | inconclusive: 79.4 µM [inhibitor, partial curve] and inconclusive: 35.5 µM [inhibitor, single point] |  |
| O=C(O)C1Cc2nc[nH]c2CN1C(=O)CCc1cn2ccccc2n1 (centres undefined) | active: 11.2 µM |  |
| COc1ccc2[nH]c(C(=O)N3C[C@@H](Oc4ccccc4)C[C@H]3C(=O)N3CCOCC3)cc2c1 | inconclusive: 22.4 µM [inhibitor, partial curve, poor fit] |  |
| CCn1cnnc1-c1nn(C)c2c1CN(C(=O)c1nn(C)c3ccccc13)CC2 | inconclusive: 28.2 µM [inhibitor, single point] |  |
| CN(c1ccccc1)c1cc(=O)c2ccnc(-c3ccccc3O)c2o1 |  | inactive: -3.82% [at 86.2 µM] |
| COc1ccc(CCNc2nc3ccc(Cl)cc3n3cnnc23)cc1OC |  | inactive: -21.3% |
| Cc1cccc2nc(-c3ccc(N(C)C)cc3)c(Nc3ccc4c(c3)OCO4)n12 | inconclusive: 2.51 µM [inhibitor, full curve, poor fit] |  |
| CCc1nc2c(c(-c3ccc(OC)cc3)n1)CN(C(=O)c1ccccc1)CC2 |  | inactive: -2.97% [at 115 µM] |
| COc1cccc(CN2CCCCCCNC(=O)[C@@H]3C[C@@H](C(=O)NCCc4cnc[nH]4)C[C@@H]32)c1OC | inconclusive: 22.4 µM [inhibitor, partial curve, poor fit] |  |
| COC(=O)CNC(=O)C(C)(C)c1cccc(C(F)(F)F)c1 |  | inactive: -14.4% |

| SMILES | Potency | activity change, negative = inhibition |
| --- | --- | --- |
| CCOc1ccccc1C(=O)Nc1cccc2ccc(C)nc12 | inconclusive: 35.5 µM [inhibitor, single point] |  |
| O=C1CC(c2ccc(OCc3ccc(Cl)cc3)cc2)c2c(nc(-c3ccccc3)[nH]c2=O)N1 (centres undefined) | inconclusive: 39.8 µM [inhibitor, single point] |  |
| COc1ccc(CN2C(=O)COC[C@H]2C(=O)Nc2ccc(C(C)C)cc2)c(OC)c1 | inconclusive: 20 µM [inhibitor, single point] |  |
| CCN(CC)CCNc1ncnc2c1cnn2-c1cc(Cl)ccc1C | inconclusive: 28.2 µM [inhibitor, partial curve, poor fit] |  |
| COC[C@@H]1CN(C(=O)COc2cccc(C)c2)C[C@H]1c1ccncc1 |  | inactive: -0.481% |
| CC(C)c1ccc(-c2noc(SCC(=O)N3CCN(c4ccc(F)cc4)CC3)n2)cc1 | inconclusive: 31.6 µM [inhibitor, single point] |  |
| O=C(CCc1ccccc1)N(Cc1cccnc1)c1nc2c(F)cc(F)cc2s1 |  | inconclusive: -30.7% [inhibitor] |
| COc1ccc(-c2nc3ccccc3n2Cc2ccc(C(C)C)cc2)cc1 | inconclusive: 35.5 µM [inhibitor, partial curve, poor fit] |  |
| Cc1ccc(C2NC(=O)N(C)C3=C2C(=O)N(c2ccc(C)cc2)C3)cc1 (centres undefined) |  | inactive: 4.92% |
| CCN1c2cc(C(=O)NCc3ccc(C)c(C)c3)ccc2C(=O)N2CCCCC21 (centres undefined) | inconclusive: 22.4 µM [inhibitor, partial curve, poor fit] |  |
| O=C(COc1ccc(Cl)cc1)Nc1ccc2oc(-c3ccccc3F)nc2c1 | inconclusive: 1.78 µM [inhibitor, partial curve, poor fit] |  |
| C[S+](=O)([O-])N1CCC(Cn2ccc3c(N4CCOCC4)nc(-c4cccnc4)cc32)CC1 | inconclusive: 28.2 µM [inhibitor, single point] |  |
| CCCC1N=C2c3ccccc3N=C(SCC(=O)Nc3cc(OC)cc(OC)c3)N2C1=O (centres undefined) |  | inactive: -1.21% |
| Cn1ncc2c(C(=O)NCc3cccnc3)cc(C(C)(C)C)nc21 | active: 100 µM |  |
| CCOc1ccc(NC(=O)NC(C)c2c(-n3cccc3)sc3c2CCN(CC)C3)cc1 (centres undefined) | inconclusive: 17.8 µM [inhibitor, partial curve, poor fit] |  |
| COc1cccc(CCNC(=O)c2ccc(Cn3c(SCc4ccccc4)nc4cccnc43)cc2)c1 | inconclusive: 31.6 µM [inhibitor, partial curve, poor fit] |  |
| CCCOc1ccc(-c2nc(C#N)c(NCCN(C)C)o2)cc1 | inconclusive: 1.78 µM [inhibitor, partial curve, poor fit] |  |
| Cc1cccn2c(=O)c3cc(C(=O)NC(C)C)n(C)c3nc12 | inconclusive: 28.2 µM [inhibitor, partial curve, poor fit] |  |
| O=C(Nc1ccc2nc(SCCOc3ccccc3)sc2c1)c1ccco1 | inconclusive: 28.2 µM [inhibitor, partial curve, poor fit] |  |
| CCCc1cc(=O)oc2cc(C)cc(OCC(=O)NCCCO)c12 | inconclusive: 22.4 µM [inhibitor, partial curve, poor fit] |  |
| COc1ccc(C(=O)NCc2nnc3cc(-c4nc(C)no4)ccn23)cc1 | active: 25.1 µM |  |
| Cc1ccn2c(c1)nc(=O)c1cc(S(=O)(=O)N3CCCCC3)ccc12 | inconclusive: 28.2 µM [inhibitor, partial curve, poor fit] |  |

| SMILES | Potency | activity change, negative = inhibition |
| --- | --- | --- |
| Cc1ccccc1N(C)C1CN([S+](=O)([O-])c2cccc(C(F)(F)F)c2)C1 | inconclusive: 12.6 µM [inhibitor, full curve, poor fit] |  |
| COc1ccc(NC(=O)c2cnc(N3CCOCC3)c3ccccc23)cc1OC | inconclusive: 39.8 µM [inhibitor, single point] |  |
| CC(C)NC(=O)c1nc(-c2cccnc2)c2cnccn12 | active: 35.5 µM |  |
| O=C(NCCc1c[nH]c2ccc(Cl)cc12)C1CC(=O)N(c2n[nH]c3ccccc23)C1 (centres undefined) | inconclusive: 20 µM [inhibitor, partial curve] |  |
| Cc1csc(NC(=O)c2nn(C(C)C)c(=O)c3ccccc23)n1 |  | inactive: -9.14% |
| Cc1ccc(S(=O)(=O)c2nnn3c2nc(NCc2ccc(F)cc2)c2ccccc23)cc1C | inconclusive: 63.1 µM [inhibitor, partial curve, poor fit] |  |
| COc1ccc(-c2[nH]nc3ncc(-c4cn[nH]c4)nc23)c(C)c1 | active: 31.6 µM |  |
| O=C(NCCN1CCOCC1)c1ccc(-c2ccc(N3CCSCC3)nc2)cc1 | active: 28.2 µM |  |
| CC(=O)c1ccc(OC(=O)C23CC4CC(CC(Cl)(C4)C2)C3)cc1 |  | inactive: 19.4% |
| COc1ccc(/C=C(/C(=O)O)c2cccs2)cc1 |  | inactive: 2.56% |
| CN(C)c1nccnc1OC1CCN(C(=O)c2ccn[nH]2)C1 (centres undefined) | inconclusive: 31.6 µM [inhibitor, partial curve] |  |
| CCc1noc(-c2ccc(N3CCC(C)CC3)c([N+](=O)[O-])c2)n1 |  | inconclusive: -34.1% [inhibitor] |
| CCN(CC)S(=O)(=O)c1ccc(N2CCCC2)c(NC(=O)Cc2ccccc2C)c1 |  | inactive: 9.72% |
| Cc1cc(C)c(C(=O)/C=C/c2ccco2)cc1C | inconclusive: 15.8 µM [inhibitor, partial curve, poor fit] |  |
| CC1=C[C@@H](CNC(=O)CCC(=O)O)[C@H](C(C)C)C[C@H]1Cc1nc2c(C)cccc2[nH]1 | inconclusive: 35.5 µM [inhibitor, single point] |  |
| O[C@@H]1CC(CNCc2ccc(F)cc2)(COc2cnccn2)C[C@@H]1O (some centres undefined) | inconclusive: 20 µM [inhibitor, partial curve] |  |
| O=C(Nc1cccc(C(F)(F)F)c1)c1cnc2c(c1)N(Cc1ccccc1)CCC2 | active: 7.08 µM |  |
| O=C(Nc1ccc2c(c1)OCCO2)C1CN(S(=O)(=O)C2CC2)CC12CCCCC2 (centres undefined) |  | inactive: -28.1% |
| CCCC(=O)Oc1c(Sc2ccc(C)cc2)c(C)nn1-c1ccccc1 | inconclusive: 1 µM [inhibitor, full curve, poor fit] |  |
| O=C(Nc1cc(Cl)cc(Cl)c1)c1ccc(F)c(S(=O)(=O)N2CCCC2)c1 | inconclusive: 35.5 µM [inhibitor, single point] |  |
